Among all 330,000 compounds or so, about 1,700 (0.52%) were called active. The inconclusive results got no clear call from the source; some entries with a clear call stand among them for comparison. Calls come from the whole dose curve; as a rule, active = well fitted inhibition curve with a large enough effect; inconclusive = small, poorly fitted or top-dose-only effect; inactive = no such curve, though single readings can be large or run the other way. Potencies beside an inconclusive call are fits to weak or partial responses and may not hold up. Square brackets hold non-standard residues; d marks the D form. Peptide text beside a SMILES is read from it. * marks the point of attachment. Hyp = O=C(O)[CH]1C[CH](O)CN1; Cbz = O=C(OCc1ccccc1)*; OBn = c1ccc(CO*)cc1
Each compound was assayed against Beta-lactamase (Escherichia coli (strain K12)) (UniProt P00811) (assay: qHTS Inhibitors of AmpC Beta-Lactamase (assay without detergent)). Details: AmpC nitrocefin hydrolysis, absorbance 480 nm, 0.0001% Triton; activity change, negative = inhibition: at 57.1 µM (top of the series) unless noted.
Procedure, shortened: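 AmpC (5.3 nM in the dispensed reagent) in 20 mM phosphate pH 7.0 with 0.01% (detergent screen) or 0.0001% Triton X-100 was preincubated with compounds for 15 min at room temperature. Nitrocefin was then added from an 800 uM solution, and hydrolysis was followed at 480 nm.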
Note: nearly all actives have a fitted effect of over 20% in size.
Potency is the fitted concentration of half-maximal effect; tags give direction and shape of the fitted curve.
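Throughout, for activity change, negative = inhibition: plate controls were no compound for no effect and no enzyme for full effect.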

Sequence of UniProt P00811 (P00811 whole entry, looked up): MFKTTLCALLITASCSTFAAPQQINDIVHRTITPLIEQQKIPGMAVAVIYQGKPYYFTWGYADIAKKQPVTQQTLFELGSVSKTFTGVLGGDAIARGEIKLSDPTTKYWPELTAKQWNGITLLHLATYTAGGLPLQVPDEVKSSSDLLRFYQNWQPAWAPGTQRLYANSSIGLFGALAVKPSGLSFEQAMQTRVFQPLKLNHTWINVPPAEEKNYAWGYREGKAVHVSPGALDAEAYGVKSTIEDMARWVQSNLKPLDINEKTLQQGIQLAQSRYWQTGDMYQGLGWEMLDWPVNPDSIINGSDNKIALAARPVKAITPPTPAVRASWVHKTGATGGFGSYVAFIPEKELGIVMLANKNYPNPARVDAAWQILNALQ

| Compound | Potency | activity change, negative = inhibition |
| --- | --- | --- |
| N#C[C@]1(S(=O)(=O)c2ccccc2)C[C@@H]2ON=C(c3cccc(Br)c3)[C@@H]2C1 | inconclusive: 28.2 µM [inhibitor, single point] | – |
| COc1ccccc1N(C)S(=O)(=O)c1ccc(C(=O)OCC(=O)c2c[nH]c3ccccc23)cc1 | inconclusive: 12.6 µM [inhibitor, partial curve] | – |
| CC(C)C[C@H](CO)Nc1nc(Nc2cccc(Cl)c2)c2ncn(C(C)C)c2n1 | – | inactive: 65.5% |
| O=C1c2[nH]nc(-c3ccccc3O)c2C(c2ccc(F)cc2)N1Cc1ccco1 (centres undefined) | inconclusive: 2.82 µM [inhibitor, partial curve, poor fit] | – |
| CC(C)n1cnnc1SCC(=O)NNC(=O)COc1ccc(Cl)cc1 | inconclusive: 35.5 µM [inhibitor, single point] | – |
| Cc1ccc(S(=O)(=O)N2c3ccccc3NC(=O)CC2C)cc1 (centres undefined) | inconclusive: 3.55 µM [inhibitor, partial curve, poor fit] | – |
| O=c1c(Cl)c(Nc2cccc(Cl)c2)cnn1-c1nc2ccccc2s1 | inconclusive: 7.94 µM [inhibitor, full curve, poor fit] | – |
| CN(C(=O)COC(=O)c1cc(=O)[nH]c2ccccc12)c1c(N)n(Cc2ccccc2)c(=O)[nH]c1=O | inconclusive: 39.8 µM [inhibitor, single point] | – |
| O=C(c1nc2nc(-c3ccccc3)cc(C(F)(F)F)n2n1)N1CCOCC1 | inconclusive: 6.31 µM [inhibitor, single point] | – |
| Cc1cc(C)c(C(=O)Nc2ccc(S(=O)(=O)Nc3onc(C)c3C)cc2)c(C)c1 | inconclusive: 39.8 µM [inhibitor, partial curve, poor fit] | – |
| CCN(c1ccccc1)S(=O)(=O)c1ccc(Cl)c(NC(=O)COC(=O)c2cc(O)c3ccccc3c2O)c1 | active: 3.98 µM | – |
| Cc1ccc(C)c(NC(=O)N2CCCCCC2)c1 | – | inactive: -5.48% |
| O=S(=O)(c1ccc(-c2csc(Nc3ccc(F)cc3)n2)cc1)N1CCCC1 | active: 8.91 µM | – |
| Cc1ccc(F)cc1CNC(=O)C1CCC(=O)N(CCCN2CCCC2=O)C1 (centres undefined) | – | inactive: -6.79% |
| O=C1CN(C(=O)c2ccco2)c2ccccc2N1 | inconclusive: 2.51 µM [inhibitor, partial curve, poor fit] | – |
| COc1ccccc1N1CCN(S(=O)(=O)CCNC(=O)CC2CCCCC2)CC1 | inconclusive: 39.8 µM [inhibitor, single point] | – |
| O=C(O)CCCc1ccc(N(CCCl)CCCl)cc1 | – | inactive: -17.9% |
| O=[N+]([O-])c1ccc(N2CCNCC2)cc1NCc1ccco1 | active: 17.8 µM | – |
| CCCn1c(C)cc(-c2csc(NC(=O)CCc3nc4ccccc4c(=O)[nH]3)n2)c1C | inconclusive: 28.2 µM [inhibitor, single point] | – |
| CCOc1ccc(/C(O)=C2/C(=O)C(=O)N(c3nc(C)c(C)s3)C2c2ccco2)cc1 (centres undefined) | inconclusive: 31.6 µM [inhibitor, single point] | – |
| Cc1ccc(NC(=O)C2CCCN(c3ncccn3)C2)c(C)c1 (centres undefined) | – | inactive: -5.74% |
| CC1CCCN(C(=O)c2ccc(NC(=O)CC3SC(N4CCCC4)=NC3=O)cc2)C1 (centres undefined) | inconclusive: 28.2 µM [inhibitor, single point] | – |
| O=C(/C=C/c1cccs1)Nc1ccc(N2CCOCC2)c(S(=O)(=O)Nc2cc(Cl)ccc2Cl)c1 | inconclusive: 22.4 µM [inhibitor, partial curve] | – |

| Compound | Potency | activity change, negative = inhibition |
| --- | --- | --- |
| COc1ccccc1NC(=O)COc1ccc(/C=N/NS(=O)(=O)c2ccc(C)cc2)cc1 | inconclusive: 1.41 µM [inhibitor, full curve] | – |
| COC(=O)c1ccccc1SC1CC(=O)N(c2cccc(C)c2)C1=O (centres undefined) | active: 7.08 µM | – |
| CCC(=O)NC(C)C(c1cccs1)N1CCN(Cc2ccccc2)CC1 (centres undefined) | active: 44.7 µM | – |
| Cc1cccn2c(=O)nc(SCC(=O)N3CCCCC3)nc12 | inconclusive: 25.1 µM [inhibitor, single point] | – |
| S=c1[nH]nc(Cc2c[nH]c3ccccc23)o1 | inconclusive: 1 µM [inhibitor, partial curve, poor fit] | – |
| Cc1ccc(NC(=O)NNC(=O)c2cc3ccccc3cc2O)cc1C | inconclusive: 15.8 µM [inhibitor, partial curve] | – |
| Cc1ccc(N2CC(NC(=O)C(=O)c3c(C)[nH]c4ccccc34)CC2=O)cc1C (centres undefined) | inconclusive: 35.5 µM [inhibitor, single point] | – |
| Cc1ccc(-n2c(O)c(/C=N/c3ncn[nH]3)c3ccccc3c2=O)cc1 | – | inactive: -16.3% |
| COc1ccc(/C=C2\CCc3ccccc3C2=O)cc1Cn1cccn1 | – | inactive: 2.16% |
| O=C(COC(=O)CNS(=O)(=O)c1ccc(Br)cc1Cl)NC1CC1 | inconclusive: 35.5 µM [inhibitor, single point] | – |
| Cn1c(NC(=O)c2ccccc2F)cc(=O)n(C)c1=O | – | inactive: -9.51% |
| CC(NC(=O)CNC(=O)OCc1ccccc1)C(=O)N1CC(O)CC1C(=O)OCc1ccccc1 (stereo not drawn) (Cbz-Gly-Ala-[Hyp]-OBn; configuration not given here) | inconclusive: 6.31 µM [inhibitor, single point] | – |
| C=CC[C@@H](CC(=O)N(CCO)Cc1ccccc1)C(=O)N[C@H](COC(=O)[C@@H](CC=C)Cc1ccc(F)cc1)c1ccccc1 | – | inactive: 101% |
| COc1ccc(C(=O)/C=C/Nc2c(C)n(C)n(-c3ccccc3)c2=O)c(OC)c1 | – | inactive: -6.71% [at 11.4 µM] |
| Cc1ccc(NC(=O)CN2C(=O)NC3(CCCC3)C2=O)nc1 | inconclusive: 35.5 µM [inhibitor, single point] | – |
| CCOc1ccc(N2C(=O)CN(c3cccc4ccccc34)C2=S)cc1 | active: 10 µM | – |
| Cc1cc(/C=C(\C#N)C(=O)Nc2ccc(Cl)cc2)c(C)n1-c1ccc(N2CCOCC2)c([N+](=O)[O-])c1 | active: 7.94 µM | – |
| O=C(Nc1cccc(-n2cnnn2)c1)c1ccoc1COc1ccc(Cl)cc1 | active: 7.08 µM | – |
| COCCCn1c(SCC(=O)NC2CCCCC2)nnc1-c1ccncc1 | – | inactive: -8.68% |
| CCOC(=O)C(Cc1ccc(NC(=O)/C(=C\c2ccccc2)NC(=O)c2ccccc2)cc1)N1C(=O)c2ccccc2C1=O (centres undefined) | inconclusive: 10 µM [inhibitor, partial curve] | – |
| Cc1cc(NC(=O)Cc2cccs2)no1 | inconclusive: 28.2 µM [inhibitor, single point] | – |
| CC(NC(=O)CCCCCN1C(=O)c2ccccc2C1=O)c1ccc2c(c1)CCCC2 (centres undefined) | inconclusive: 5.62 µM [inhibitor, single point] | – |
| CCC(=O)Nc1nc(-c2ccc3c(c2)OCCO3)cs1 | active: 39.8 µM | – |

| Compound | Potency | activity change, negative = inhibition |
| --- | --- | --- |
| CCOC(=O)[C@@H]1[C@H]2COc3cc(OC)ccc3[C@@H]2N2C(=O)N(c3ccc(Cl)cc3)C(=O)[C@@]12C | – | inactive: 39.5% |
| COc1cc(NC(=O)c2cccs2)ccc1NC(=O)Cc1ccccc1 | inconclusive: 3.55 µM [inhibitor, partial curve, poor fit] | – |
| Cn1cc(S(=O)(=O)NC2CCCC2)c(=O)n(C)c1=O | inconclusive: 35.5 µM [inhibitor, single point] | – |
| Oc1c(I)cc(Cl)c2cccnc12 | – | inactive: -28.4% |
| CCc1nc(SCC(=O)NNC(=O)C(C)C)c2ccccc2n1 | inconclusive: 3.98 µM [inhibitor, single point] | – |
| CCOc1ccccc1Nc1nnc(SCC(=O)Nc2ccc3[nH]c(=O)[nH]c3c2)s1 | active: 17.8 µM | – |
| CCOC(=O)C(NC(=O)c1cccc(Cl)c1)(Nc1sc2c(c1C(N)=O)CCC2)C(F)(F)F (centres undefined) | – | inactive: -49.4% |
| COC(=O)c1ccc(NC(c2ccc(Cl)cc2)P(=O)(OC)OC)cc1 (centres undefined) | – | inactive: 85.4% |
| Cc1ccc2c(c1)N(CC(=O)N1CCCC1)C(=O)c1cccnc1O2 | inconclusive: 12.6 µM [inhibitor, partial curve] | – |
| O=C(CC(c1ccccc1O)N1CCCCC1)N1CCCCC1 (centres undefined) | – | inactive: -10.1% |
| CCOC(=O)CSC1=NC(=O)/C(=C\c2ccc(Cl)cc2)S1 | – | inactive: -38.6% |
| Cc1ccccc1C(=O)NCC(=O)OC(C)C(=O)Nc1ccnn1C(C)C (centres undefined) | inconclusive: 39.8 µM [inhibitor, single point] | – |
| CCCCc1cc(=O)oc2cc(C)cc(OC(C)C(=O)NC(Cc3c[nH]c4ccc(O)cc34)C(=O)O)c12 (centres undefined) | inconclusive: 1.41 µM [inhibitor, full curve, poor fit] | – |
| CCOC(=O)/C(=N/Nc1ccccc1)Sc1nnnn1-c1ccc(C)cc1 | inconclusive: 1.41 µM [inhibitor, full curve, poor fit] | – |
| CCOC(=O)N1C(=O)[C@@](c2ccc(Cl)cc2)(C(C)C)N1C(=O)OCC | – | inactive: 43.5% |
| Cc1c(C(=O)O)oc2c3c(ccc12)OCCO3 | inconclusive: 0.316 µM [inhibitor, full curve, poor fit] | – |
| CC(C)N(Cc1ccccc1)C(=O)COC(=O)C1CCN(S(=O)(=O)c2ccc3c(c2)OCCO3)CC1 | inconclusive: 12.6 µM [inhibitor, single point] | – |
| O=C(N/N=C(\Cc1ncc[nH]1)c1ccccc1)c1ccncc1 | – | inactive: -23.3% |
| Cc1ccc(S(=O)(=O)Nc2ccc(Br)cc2C(NCC(=O)O)c2ccccc2)cc1 (centres undefined) | – | inactive: 8.94% |
| O=C(Nc1ccccc1)c1sc2cc(C(F)(F)F)cnc2c1-c1cccs1 | active: 4.47 µM | – |
| [N-]=C=C1C(=O)NC(=O)C([n+]2ccc(-c3ccncc3)cc2)C1c1ccccc1C(F)(F)F (centres undefined) | – | inactive: -21.8% |
| CC(=O)c1ccc(N2CCC(c3cc(-c4ccc(Cl)cc4)n[nH]3)CC2)c([N+](=O)[O-])c1 | inconclusive: 6.31 µM [inhibitor, single point] | – |
| COc1cc(C(=O)NC2CCCCC2)ccc1OCc1ccc(Cl)cc1Cl | – | inactive: -17.6% |

Reference: PubChem BioAssay AID485341 (National Center for Advancing Translational Sciences (NCATS), 2010)
